About 4,300 (8.3%) of roughly 52,000 compounds were called active. Cut-off read from the data, not from the text of the source: active = survival mostly below about 52% (no sharp cut-off); inactive = mostly above about 56%. This is one part of the list.

The experiment has as its system DeltatarO mutant. Briefly: S. aureus survival, RN4220 and DeltatarO strains – OD600, teichoic acid synthesis inhibitors, primary screen (AID 463173). As to conditions: S. aureus RN4220 wild type/DeltatarO growth, OD600, 18 h, hits give low values, screened at 18.75 µg/mL (by protocol).
As to `CCc1ccc(NC(=O)Cn2c(=O)oc3cc(S(=O)(=O)N4CCCCCC4)ccc32)cc1`, the survival is inactive: 61%. The figure for `O=C(Cn1cc(/C=C2\C(=O)NC(=O)N(Cc3ccccc3)C2=O)c2ccccc21)NCc1ccco1` is inactive: 64%; for `Cc1onc(-c2ccc(F)cc2F)c1C(=O)Nc1cccc(C(F)(F)F)c1` it is inactive: 97%; for `CN(C(=O)C(=O)Nc1ccc2nc3n(c(=O)c2c1)CCCCC3)c1cccc(C(F)(F)F)c1` it is inactive: 76%. The figure for `O=S(=O)(Nc1nc2n(n1)C(c1ccc(F)cc1)C=C(c1ccccc1)N2)c1ccc(Cl)cc1` (centres undefined) is active: 10%.

As for `Cc1cccc(N2CCN(C3(c4ccccc4)C(=O)c4ccccc4C3=O)CC2)c1C`, the survival was inactive: 79%.

Consider `Cc1ccc(S(=O)(=O)N2CCOCC2)cc1C(=O)Nc1ccccc1C(=O)O`, for which the survival was inactive: 83%. On to `COc1ccc(CCNC(=O)c2c(C)nn(-c3ccc(F)cc3)c2-n2cccc2)cc1OC`, for which the survival was inactive: 74%. For the compound `O=C(Nc1cccc(Cl)c1)NC1(C(=O)Nc2ccc3c(c2)OCCO3)CCCCC1`, the survival was inactive: 88%. With `Cn1cc(S(=O)(=O)N2CCCCCC2)cc1C(=O)NCc1ccccc1Cl`, the survival was inactive: 112%.

For `COc1cc(OC)cc(C(=O)N2CCC(C(=O)NC(C)C)CC2)c1`, the survival is inactive: 87%. The figure for `CCOc1ccc(-n2c(-c3ccccc3)c(C)n3c4c(=O)n(C)c(=O)n(C)c4nc23)cc1` is inactive: 85%; for `CCn1cc(C(=O)NCc2ccc(C)cc2)c(=O)c2cc(S(=O)(=O)N3CCCCCC3)ccc21` it is inactive: 82%; for `COc1ccccc1CNC(=O)c1ccc2nc(-c3ccccc3)c(-c3ccccc3)nc2c1` it is inactive: 94%. Consider `O=C(CCc1nc2cccnc2n1Cc1cccs1)Nc1cccc(Cl)c1`, for which the survival was inactive: 52%. The figure for `Cc1nn(C)c2c1c(C(F)(F)F)cc(=O)n2Cc1cccc(Br)c1` is inactive: 103%; for `CCOC(=O)c1cc(-c2ccccc2)n(CCC(=O)Nc2ccc(Cl)c(C(F)(F)F)c2)c1C` it is inactive: 102%. For the compound `Cc1cccc(NS(=O)(=O)c2ccc(-n3cccn3)cc2)c1C`, the survival is inactive: 65%. The figure for `CC(C)CNc1nc(Oc2ccc(OCC(N)=O)nn2)nc(N2CCOCC2)n1` is inactive: 69%; for `c1ccc(-c2nonc2NCNc2nonc2-c2ccccc2)cc1` it is inactive: 96%. The figure for `Cc1oc(C)c2c(=O)cc(-c3ccc4c(c3)OCO4)cc(OC(=O)c3ccccc3Cl)c12` is inactive: 99%; for `CCOC(=O)c1c(NC(=O)CC)sc(C(=O)OC)c1C` it is inactive: 75%; for `CS(=O)(=O)N(CC(=O)O)C1CCCCC1` it is inactive: 91%.

As to `CCN1C(=O)/C(=C2/Sc3ccc(OC)cc3N2C)SC1=Nc1cccc(O)c1`, the survival is inactive: 93%. As for `Cc1c(Cl)cccc1NC(=O)Cn1c(=O)nc(-c2ccccc2)c2ccccc21`, the survival was inactive: 91%. The figure for `CCCNC(=O)C1CCN(c2ncnc3c2nc2n3CCCCC2)CC1` is inactive: 76%; for `COc1ccc(NC(=O)c2coc(C)c2)cc1` it is inactive: 82%; for `CCCC(=O)NCC(c1ccc2c(c1)OCO2)N1CCN(c2ccccc2)CC1` (centres undefined) it is inactive: 83%. `CCOC(=O)N1CCc2c(sc(NCc3ccc(OC)c(OC)c3OC)c2C(=O)Nc2ccc(OC)cc2OC)C1`: the survival is inactive: 94%. The figure for `CCc1ccc(-n2c(=O)c3sc4ccccc4c3n(Cc3cccc(F)c3)c2=O)cc1` is inactive: 90%; for `CCc1nnc(NC(=O)c2nc(SCc3ccccc3C)ncc2Cl)s1` it is inactive: 96%. As to `CCCCCOc1ccc(/C=C/C(=O)Nc2sc(C(C)=O)c(C)c2C(=O)OCC)cc1OC`, the survival was inactive: 71%.

As to `COC(=O)CSc1nc(-c2ccc(F)cc2)cc(C(F)(F)F)n1`, the survival is inactive: 126%. The figure for `O=C(CCn1ccc2cc(S(=O)(=O)N3CCCC3)ccc21)NCc1cccc(F)c1` is inactive: 81%; for `CCN(CC)Cn1c(=S)sc2ccccc21` it is inactive: 75%. The figure for `COc1ccc(OC)c(C2N=C(N)Nc3nc4ccccc4n32)c1` (centres undefined) is inactive: 54%; for `COc1cc(OC)c(C2Nc3ccccc3-c3nnc(SCc4ccccc4)nc3O2)cc1OC` (centres undefined) it is inactive: 54%.

With `COc1ccc(NC(=O)Cn2c(=O)n(Cc3nc(C)no3)c(=O)c3cc4c(cc32)OCO4)cc1OC`, the survival is inactive: 75%. For the compound `COc1cccc(-n2cc(C(=O)NCc3ccccc3OC)c3ccccc3c2=O)c1`, the survival was inactive: 72%. The figure for `COc1ccc(-c2nc(CN3CCC(C(=O)NCCCOC(C)C)CC3)c(C)o2)cc1OC` is inactive: 92%; for `Cc1ccccc1Cn1c(=O)n(CCc2ccccc2)c(=O)c2c(C)c(C)sc21` it is active: -6%. As for `COc1cccc(OCCSc2nc3ccccc3n2CC(=O)N2CCCCC2)c1`, the survival was active: 42%. Consider `COC(=O)c1cc(S(=O)(=O)NCC2CCN(Cc3cccc(F)c3)CC2)c[nH]1`, for which the survival was inactive: 77%. As for `CCc1cc2c(cc3c(=O)n(CC(=O)NCCc4ccc(OC)c(OC)c4)ncn32)s1`, the survival is inactive: 72%. Regarding `Cc1cccc(-c2nn3c(=O)cc(CN4CCN(S(=O)(=O)c5ccc(Cl)cc5)CC4)nc3s2)c1`, the survival was inactive: 67%. The figure for `CCC(C(=O)Nc1ccccc1C(=O)OC)n1nc(C)c2c(C)n(-c3ccc(C)cc3)nc2c1=O` (centres undefined) is inactive: 93%; for `CCC1CCc2nc3sc(C(=O)Nc4ccc(F)c(Cl)c4)c(N)c3cc2C1` (centres undefined) it is inactive: 71%; for `COc1ccccc1C(=O)OCc1cc(=O)n2nc(C3CC3)sc2n1` it is inactive: 82%. For `Nc1ccc2nc(SCC(=O)O)sc2c1`, the survival is inactive: 102%. The figure for `Cc1nc(-c2ccc(Cl)cc2)sc1CCNC(=O)c1ccc(C(F)(F)F)cc1` is inactive: 107%. The figure for `COC(=O)CSc1nc2ccc(C(C)C)cc2cc1C#N` is inactive: 82%; for `Cc1ccc(C)c(NC(=O)CCn2nc(C)c3c(C)n(-c4ccccc4)nc3c2=O)c1` it is active: 37%; for `CCc1ccc(NC(=O)c2sc3nc(C)c(Cl)c(C)c3c2N)cc1` it is inactive: 69%. The figure for `O=C(Cn1c(-c2cccs2)cc2cc(Cl)ccc21)N1CCN(c2ccccc2)CC1` is inactive: 78%; for `COc1ccc(-c2cccc(NS(=O)(=O)c3cc(C)c(OC)c(C)c3C)c2)nn1` it is inactive: 96%; for `Cc1ccc(NC(=O)C2CCCN2S(=O)(=O)c2ccc3c(c2)CCCC(=O)N3)cc1C` (centres undefined) it is inactive: 80%. `Cc1cccc(N(CC(=O)O)S(C)(=O)=O)c1`: the survival is inactive: 72%. The figure for `COc1ccc(NC(=O)C(c2ccc(C)cc2)N(C)C(=O)Cc2cccs2)cc1` (centres undefined) is inactive: 57%; for `COc1ccccc1CNC(=O)CSc1ncc2c(n1)-c1ccc(Cl)cc1N(Cc1ccccc1)S2(=O)=O` it is active: 32%; for `Cc1c(Cl)cccc1NC(=O)C(C)n1c(=O)cc(-c2ccccc2)c2c(C)nn(C)c21` (centres undefined) it is inactive: 86%. The figure for `COc1ccccc1Nc1nc(Nc2cccc(C(F)(F)F)c2)nc(N2CCOCC2)n1` is inactive: 73%; for `CC(C)(C)c1ccc(OCCn2ccccc2=O)cc1` it is inactive: 86%; for `Cc1cccc(-n2c(=O)c3c(c4cc(C)ccc4n3C)n(CC(=O)NCCC3=CCCCC3)c2=O)c1` it is inactive: 67%. The figure for `COc1ccc(-c2noc(-c3cccnc3NCc3ccco3)n2)cc1` is inactive: 98%. With `COc1ccc(-c2onc(C)c2C)cc1S(=O)(=O)NCC1CCN(Cc2ccccc2F)CC1`, the survival is inactive: 96%.

Regarding `CCOC(=O)CSc1nc2ccccc2c(=O)n1CCc1ccc(OC)c(OC)c1`, the survival is inactive: 102%. With `CC(=O)NC(NC(C)=O)c1ccc2c(c1)OCO2`, the survival is inactive: 80%. Take `CCC1CN(C(=O)N2CCC(C(=O)NCCN(CC)CC)CC2)c2ccccc2O1` (centres undefined): the survival is inactive: 78%. The figure for `Cc1ccc(Oc2c(C(F)(F)F)oc3cc(OCC(=O)NC4CCCCC4)ccc3c2=O)cc1` is active: 46%. The figure for `CC(=O)NC1=NN(C(C)=O)C2(S1)C(=O)Nc1ccccc12` (centres undefined) is inactive: 90%; for `CCc1cccc(C)c1NC(=O)CSc1nc(C)cc(C)c1C(=O)Nc1ccccc1` it is inactive: 44%; for `O=C(CC(c1cccs1)N1Cc2ccccc2C1=O)Nc1ccc(F)c(Cl)c1` (centres undefined) it is inactive: 83%. The figure for `C=CCC(CC=C)(CNC(=O)C(=O)Nc1cccc(C(F)(F)F)c1)c1ccccc1` is inactive: 112%; for `Cc1nnc(NC(=O)C2CCCN(c3ncccn3)C2)s1` (centres undefined) it is inactive: 107%.

As to `COc1ccc(Cl)cc1NC(=O)CN(C)S(=O)(=O)c1ccc2c(c1)CCCN2C(C)=O`, the survival is inactive: 78%. Turning to `CC(CNC(=O)Cn1ccc2cc(S(=O)(=O)N3CCCCCC3)ccc21)c1ccccc1` (centres undefined), the survival was inactive: 109%. The figure for `CCOC(=O)c1ccc(N2CCN(c3cccc(Cl)c3)CC2)c(NC(=O)Nc2ccc(OC)cc2OC)c1` is inactive: 77%; for `O=C(Nc1ccc2nc(SCCOc3ccccc3Cl)sc2c1)c1cccs1` it is inactive: 49%; for `COC(=O)c1sccc1S(=O)(=O)N1CCN(c2ccccc2OC)CC1` it is inactive: 74%. In the case of `CCC(=O)/C=C1/Sc2ccc(C)cc2N1CC`, the survival is inactive: 97%. The figure for `COc1ccc(/C=C2\SC(=S)N(CC(=O)NCCO)C2=O)cc1` is inactive: 78%; for `COc1ccc(N2CC(C(=O)Nc3ccc(NC(C)=O)cc3)CC2=O)cc1` (centres undefined) it is inactive: 79%.

Take `CC(C)c1ccc(S(=O)(=O)c2cnc(SCC(=O)Nc3cccc(C(F)(F)F)c3)nc2N)cc1`: the survival was inactive: 85%. The figure for `CCOC(=O)c1cc(-c2ccc(OC)c(S(=O)(=O)Nc3ccc(OC)cc3OC)c2)on1` is inactive: 120%. The figure for `Cc1ccc(CNC(=O)c2nnc(Cc3cccc(F)c3)o2)cc1` is inactive: 86%. The figure for `CC(C)N(Cc1ccccc1)c1ncnc2c1nnn2C` is inactive: 69%; for `CCOc1ccc(C(c2c(O)cc(C)n(CCOC)c2=O)N2CCN(c3ccccc3F)CC2)cc1` (centres undefined) it is inactive: 87%. Regarding `CCN1C(=O)c2ccccc2S(=O)c2ccc(C(=O)NCc3ccc(F)cc3)cc21` (centres undefined), the survival was inactive: 65%. The figure for `Cc1ccc(C)c(S(=O)(=O)c2nnn3c2nc(N2CCOCC2)c2sccc23)c1` is inactive: 108%.

For the origin of these results see PubChem BioAssay AID463173 (ICCB-Longwood Screening Facility, Harvard Medical School, 2010).
